The record followed here is the supplement of paper PMC4166925.

± gives the standard deviation of the averaged measurements. The full ranking holds about 33,000 sequences; the median of “E-score (dimensionless, -0.5 to 0.5)” is about -0.046, and the highest 2% start at about 0.36. Some of the results follow.

The test relates to T1, SpTbr T-box DNA-binding domain (GST fusion).
T1 sequence: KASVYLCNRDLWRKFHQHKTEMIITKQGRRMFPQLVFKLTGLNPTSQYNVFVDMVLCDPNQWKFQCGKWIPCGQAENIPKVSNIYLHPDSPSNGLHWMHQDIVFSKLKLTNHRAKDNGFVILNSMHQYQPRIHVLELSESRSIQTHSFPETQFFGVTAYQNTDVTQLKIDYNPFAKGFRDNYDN
In words: PBM E-score of 8-mer (E-score (dimensionless, -0.5 to 0.5)); Tbr is Tbrain of the sea star Patiria miniata (Pm) or the sea urchin Strongylocentrotus purpuratus (Sp); higher = stronger binding preference; most listed sequences are background and not binding sites. Particulars: the construct has about 5 more residues each side. In short, it runs like this: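 GST-fused Tbr T-box DNA-binding domains (the whole T-box plus about five flanking residues) were expressed in BL21 E. coli at 20 °C and purified by glutathione affinity chromatography. Universal Agilent oligonucleotide arrays were made double-stranded by primer extension, incubated with 200 nM protein in PBS (pH 7.5), then scanned and quantified. Every ungapped 8-mer was scored from probe intensities. The Universal PBM Analysis Suite gave each word an enrichment E-score, averaged over duplicate arrays.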
With ACTATGTG, the “PBM E-score of 8-mer” value stood at 0.137 ± 0.022.

As to CCCAGTCA, the “PBM E-score of 8-mer” value was -0.285 ± 0.038.

Take CCGGATCC: the “PBM E-score of 8-mer” value is -0.25 ± 0.02.

On to CAGCGGTC, for which the “PBM E-score of 8-mer” value was -0.18 ± 0.023.

As to ACTTCCGG, the “PBM E-score of 8-mer” value was -0.11 ± 0.035.

Regarding AAGGGAGC, the “PBM E-score of 8-mer” value turned out to be 0.0395 ± 0.013.

For the sequence ACCTGAAA, the “PBM E-score of 8-mer” value was found to be 0.0131 ± 0.042.

For AAGCATGT, the “PBM E-score of 8-mer” value was -0.083 ± 0.043.

Turning to GATAAAGC, the “PBM E-score of 8-mer” value amounted to 0.0575 ± 0.077.

For CCGTCTGC, the “PBM E-score of 8-mer” value was found to be 0.118 ± 0.05.

Regarding AGCCAAAT, the “PBM E-score of 8-mer” value was found to be 0.0358 ± 0.01.

With AAATGTCG, the “PBM E-score of 8-mer” value was 0.0946 ± 0.046.

On to TATTACAA, for which the “PBM E-score of 8-mer” value was -0.0456 ± 0.052.

In the case of ACAACGAG, the “PBM E-score of 8-mer” value was -0.0178 ± 0.044.

As to ATGCGGTA, the “PBM E-score of 8-mer” value amounted to 0.0163 ± 0.082.

On to AATCTCAT, for which the “PBM E-score of 8-mer” value was -0.0127 ± 0.017.

For the sequence CTAGGGGA, the “PBM E-score of 8-mer” value was -0.142 ± 0.062.

Take CAGTCACA: the “PBM E-score of 8-mer” value stood at 0.273 ± 0.031.

CACAATCC: the “PBM E-score of 8-mer” value worked out at 0.0504 ± 0.056.

In the case of AAGGAGCA, the “PBM E-score of 8-mer” value was -0.281 ± 0.049.

In the case of CTCGACAG, the “PBM E-score of 8-mer” value came out at 0.238 ± 0.012.

With ATTTTTAG, the “PBM E-score of 8-mer” value was -0.0922 ± 0.024.

Regarding ACTCACGA, the “PBM E-score of 8-mer” value turned out to be 0.114 ± 0.014.

For the sequence CTGGTGTC, the “PBM E-score of 8-mer” value was determined as 0.312 ± 0.033.

Regarding TCGTCGCA, the “PBM E-score of 8-mer” value is 0.114 ± 0.038.

Consider CGGAAAGA, for which the “PBM E-score of 8-mer” value was -0.148 ± 0.026.

Take GAGCTGCC: the “PBM E-score of 8-mer” value is 0.0961 ± 0.0086.

As to CCAAACTA, the “PBM E-score of 8-mer” value is -0.216 ± 0.12.

Regarding AACGAACT, the “PBM E-score of 8-mer” value stood at 0.0664 ± 0.032.

For the sequence GACACTGC, the “PBM E-score of 8-mer” value was determined as 0.202 ± 0.018.

Regarding CCATAACC, the “PBM E-score of 8-mer” value worked out at 0.0123 ± 0.046.

Turning to ATCGGTTG, the “PBM E-score of 8-mer” value was determined as 0.0891 ± 0.083.

For ATGAGGCG, the “PBM E-score of 8-mer” value amounted to 0.194 ± 0.024.

With ACGATAGT, the “PBM E-score of 8-mer” value is -0.0125 ± 0.0048.

With CTGGGGGC, the “PBM E-score of 8-mer” value was -0.241 ± 0.085.

In the case of TGATCACA, the “PBM E-score of 8-mer” value came out at 0.3239 ± 0.0012.

Turning to AGCAATGA, the “PBM E-score of 8-mer” value was -0.00846 ± 0.0055.

Regarding GGAGTTCA, the “PBM E-score of 8-mer” value came out at 0.0197 ± 0.031.

Take AGCAACGG: the “PBM E-score of 8-mer” value was -0.105 ± 0.035.

For the sequence CCTACGTA, the “PBM E-score of 8-mer” value was -0.305 ± 0.018.

As for AAATGGCG, the “PBM E-score of 8-mer” value is -0.0381 ± 0.038.

As for CTGGATCA, the “PBM E-score of 8-mer” value was -0.0483 ± 0.036.

Turning to CGAATTCA, the “PBM E-score of 8-mer” value amounted to 0.0155 ± 0.0036.

Consider TAGAACTA, for which the “PBM E-score of 8-mer” value is -0.112 ± 0.0026.

Turning to CGGCAATA, the “PBM E-score of 8-mer” value was determined as 0.0054 ± 0.037.

For AGCCAGGC, the “PBM E-score of 8-mer” value is -0.252 ± 0.052.

In the case of CAGTTCCG, the “PBM E-score of 8-mer” value is -0.125 ± 0.018.

With AAATTTGG, the “PBM E-score of 8-mer” value is -0.192 ± 0.02.

As to ATAAGCGC, the “PBM E-score of 8-mer” value turned out to be 0.22 ± 0.0039.

For ATGAGTCC, the “PBM E-score of 8-mer” value is -0.241 ± 0.048.

On to AGAGCCAT, for which the “PBM E-score of 8-mer” value worked out at 0.0497 ± 0.00099.

For GCCAGTCC, the “PBM E-score of 8-mer” value was -0.185 ± 0.019.

For AGACCCCG, the “PBM E-score of 8-mer” value is -0.124 ± 0.023.

As for CTGCACTC, the “PBM E-score of 8-mer” value was -0.0706 ± 0.092.

With CCCACGTC, the “PBM E-score of 8-mer” value was -0.0245 ± 0.025.

GACAAAGC: the “PBM E-score of 8-mer” value turned out to be 0.0918 ± 0.026.

For the sequence AATGAGGG, the “PBM E-score of 8-mer” value was -0.268 ± 0.015.

Consider CTTGCACA, for which the “PBM E-score of 8-mer” value came to 0.119 ± 0.039.

For CGCGGCAG, the “PBM E-score of 8-mer” value came out at 0.0441 ± 0.043.

With ACTGTTTC, the “PBM E-score of 8-mer” value is -0.0432 ± 0.0063.

For the sequence AGCCCGAC, the “PBM E-score of 8-mer” value was -0.12 ± 0.0043.

On to ACCTATCT, for which the “PBM E-score of 8-mer” value worked out at 0.102 ± 0.034.

Consider GACCCCTA, for which the “PBM E-score of 8-mer” value is -0.142 ± 0.008.

As for GATCGAGC, the “PBM E-score of 8-mer” value is -0.23 ± 0.068.

In the case of AGCCTAAG, the “PBM E-score of 8-mer” value was -0.157 ± 0.049.

Regarding TATCGATA, the “PBM E-score of 8-mer” value was -0.0181 ± 0.014.

Consider ACCTGGAT, for which the “PBM E-score of 8-mer” value is -0.0186 ± 0.074.

Take GGAGTAGA: the “PBM E-score of 8-mer” value was -0.213 ± 0.031.

ACGCGTAT: the “PBM E-score of 8-mer” value worked out at 0.132 ± 0.0031.

Regarding GTTGTCTA, the “PBM E-score of 8-mer” value is -0.123 ± 0.027.

For ATCGACAG, the “PBM E-score of 8-mer” value stood at 0.286 ± 0.005.

Consider CACACAGA, for which the “PBM E-score of 8-mer” value is 0.0669 ± 0.045.

For AGCTGGTC, the “PBM E-score of 8-mer” value was -0.207 ± 0.022.

As to AACCTATA, the “PBM E-score of 8-mer” value was -0.123 ± 0.024.

With CGTCTAAG, the “PBM E-score of 8-mer” value was -0.0186 ± 0.15.

On to ACTGTCCA, for which the “PBM E-score of 8-mer” value was 0.0295 ± 0.017.

Consider CCAAGACG, for which the “PBM E-score of 8-mer” value was -0.0885 ± 0.023.

Turning to CTTGTCGA, the “PBM E-score of 8-mer” value came out at 0.185 ± 0.0023.

In the case of CAAACGAA, the “PBM E-score of 8-mer” value is 0.0634 ± 0.013.

On to AGTGGTCA, for which the “PBM E-score of 8-mer” value amounted to 0.133 ± 0.0063.

ATGAGGTC: the “PBM E-score of 8-mer” value amounted to 0.000435 ± 0.095.

On to CCACCCGG, for which the “PBM E-score of 8-mer” value stood at 0.063 ± 0.014.

In the case of AACAAACT, the “PBM E-score of 8-mer” value was -0.04 ± 0.019.

As to ACTCAAAG, the “PBM E-score of 8-mer” value was -0.107 ± 0.039.

As for CCTCGACC, the “PBM E-score of 8-mer” value amounted to 0.0188 ± 0.0052.

With CTCAGCGA, the “PBM E-score of 8-mer” value was 0.0708 ± 0.071.
